Screen size: about 220,000 compounds; about 5,700 (2.6%) were called active. The inconclusive results got no clear call from the source; some entries with a clear call stand among them for comparison. Calls come from the whole dose curve; as a rule, active = well fitted inhibition curve with a large enough effect; inconclusive = small, poorly fitted or top-dose-only effect; inactive = no such curve, though single readings can be large or run the other way. Potencies of inconclusive entries are doubtful fits and often do not repeat.
molecular target: Lysine-specific demethylase 5B (Homo sapiens) (UniProt Q9UGL1); assay: Primary screen for KDM5B Histone Demethylases FDH-coupled qHTS; conditions: FDH-coupled NADH fluorescence (FDH is formaldehyde dehydrogenase); series mostly up to 57.7 µM; note: nearly all actives have a fitted effect of over 70% in size
UniProt Q9UGL1, sequence (Q9UGL1 whole entry, looked up): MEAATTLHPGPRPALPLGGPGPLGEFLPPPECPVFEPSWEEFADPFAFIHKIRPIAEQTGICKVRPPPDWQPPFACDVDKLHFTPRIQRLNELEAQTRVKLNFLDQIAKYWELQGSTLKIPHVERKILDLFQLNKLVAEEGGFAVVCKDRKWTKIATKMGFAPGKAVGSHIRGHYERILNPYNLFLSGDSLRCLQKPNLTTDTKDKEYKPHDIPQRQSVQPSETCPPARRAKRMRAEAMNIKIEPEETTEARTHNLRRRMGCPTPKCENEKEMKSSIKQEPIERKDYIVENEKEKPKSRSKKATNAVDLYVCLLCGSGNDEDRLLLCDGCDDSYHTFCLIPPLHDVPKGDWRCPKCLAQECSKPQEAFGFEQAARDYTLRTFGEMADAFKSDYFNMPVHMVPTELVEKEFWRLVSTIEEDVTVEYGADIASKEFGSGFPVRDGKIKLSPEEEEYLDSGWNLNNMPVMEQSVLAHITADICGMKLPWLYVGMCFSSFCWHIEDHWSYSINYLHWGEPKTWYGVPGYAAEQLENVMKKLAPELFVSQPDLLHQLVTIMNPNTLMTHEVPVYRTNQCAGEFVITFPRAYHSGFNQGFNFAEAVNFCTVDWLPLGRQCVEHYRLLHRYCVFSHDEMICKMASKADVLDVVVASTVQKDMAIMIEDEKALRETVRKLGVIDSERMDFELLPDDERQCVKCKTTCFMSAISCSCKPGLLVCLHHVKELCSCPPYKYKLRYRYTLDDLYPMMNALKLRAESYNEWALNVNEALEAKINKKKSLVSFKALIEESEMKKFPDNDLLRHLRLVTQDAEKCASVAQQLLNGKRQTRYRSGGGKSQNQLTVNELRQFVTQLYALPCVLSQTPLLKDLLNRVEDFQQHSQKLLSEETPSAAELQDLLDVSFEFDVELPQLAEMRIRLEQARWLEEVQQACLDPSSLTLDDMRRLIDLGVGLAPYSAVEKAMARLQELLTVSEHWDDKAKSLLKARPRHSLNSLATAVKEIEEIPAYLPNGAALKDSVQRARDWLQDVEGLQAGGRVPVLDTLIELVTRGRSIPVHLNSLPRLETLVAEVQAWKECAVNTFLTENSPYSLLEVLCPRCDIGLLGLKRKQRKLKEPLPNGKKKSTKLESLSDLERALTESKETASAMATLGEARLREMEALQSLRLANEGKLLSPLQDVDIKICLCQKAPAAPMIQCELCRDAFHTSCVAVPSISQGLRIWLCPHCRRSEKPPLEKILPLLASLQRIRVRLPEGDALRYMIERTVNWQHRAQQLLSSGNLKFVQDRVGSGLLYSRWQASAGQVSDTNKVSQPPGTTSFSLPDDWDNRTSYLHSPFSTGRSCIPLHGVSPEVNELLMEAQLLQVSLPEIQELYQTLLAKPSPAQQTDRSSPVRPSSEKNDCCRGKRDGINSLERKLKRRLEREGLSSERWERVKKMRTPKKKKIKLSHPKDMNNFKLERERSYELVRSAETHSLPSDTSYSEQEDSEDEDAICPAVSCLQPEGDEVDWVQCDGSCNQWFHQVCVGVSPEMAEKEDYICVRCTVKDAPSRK
Summary of the method: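 Here, H3K4me3 peptide (12.5 µM in substrate mix) is demethylated by KDM5BΔAP, 200 nM final, after 10 min compound exposure. Formaldehyde product is coupled through FDH (0.25 U/mL in mix) to NADH fluorescence; 30-min ΔRFU feeds dose-response curves.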
Potency is the fitted concentration of half-maximal effect; tags give direction and shape of the fitted curve.

| SMILES | Potency |
| --- | --- |
| CNC(=O)c1cc[nH]c1C1CCCN(C(=O)Cc2cccnc2)C1 (stereo not given) | inactive |
| O=C(Nc1nnc(N2CCCC2)s1)Nc1cc(F)ccc1F | inactive |
| C[C@@H]1C(=O)O[C@H]2[C@H]1CC[C@@]1(C)Cc3sc(NC(=O)CN(C)C)nc3[C@@H](C)[C@H]21 | inactive |
| Cc1ccc(NC(=O)CCc2ncc(-c3ccc(C)c(C)c3)o2)c(O)c1 | inactive |
| CNC(=O)c1[nH]nc2c1C(c1c(C)nc3ccc(Cl)cn13)CC(=O)N2 (stereo not given) | inconclusive: 7.94 µM [inhibitor, partial curve] |
| Cc1cnn(C(C)c2nc(-c3cccnn3)no2)c1 (stereo not given) | inactive |
| COc1ccc(CC(=O)N2CCN(c3cc(-c4cccs4)[nH]n3)CC2)cc1OC | inconclusive: 28.2 µM [inhibitor, partial curve, poor fit] |
| CN1CCCCCC(O)c2cc(C(=O)NC3CCN(Cc4ccccc4)CC3)ccc21 (stereo not given) | inconclusive: 22.4 µM [inhibitor, partial curve, poor fit] |
| Fc1ccc(NCc2ccc(Br)cc2)c(F)c1 | inactive |
| COc1ccc2[nH]c3c(c2c1)CCN(C)C31CCN(C(=O)C2CCC2)CC1 | inconclusive: 15.8 µM [inhibitor, single point] |
| Cc1oc(-c2nc(C#N)c(NCC3CCCO3)o2)cc1S(=O)(=O)N(C)C (stereo not given) | inconclusive: 25.1 µM [inhibitor, partial curve, poor fit] |
| Cc1cc(C(=O)Nc2cccc(C(F)(F)F)c2)c2c(C)nn(-c3cccc(F)c3)c2n1 | inconclusive: 35.5 µM [inhibitor, partial curve, poor fit] |
| O=C(Nc1c(NC2CCCC2)c2ccccc2oc1=O)c1ccc(Cl)cc1 | inactive |
| COC(=O)C1=C(C)N=C2SC=C(CC(=O)NCc3ccccc3)N2C1c1ccccc1C (stereo not given) | inconclusive: 15.8 µM [inhibitor, partial curve] |
| COc1ccc(-c2cc(C(F)(F)F)nc(SCC(=O)N3CCCCC3)n2)cc1 | inconclusive: 4.47 µM [inhibitor, full curve, poor fit] |
| O=C(c1cccc([N+](=O)[O-])c1)N1c2nc(-c3ccco3)nn2C2(CCCCC2)[C@@H]2CCCC[C@@H]21 | inconclusive: 10 µM [inhibitor, partial curve, poor fit] |
| CCCC(=O)c1cc2c(cc1NC(=O)c1ccccc1F)OCCO2 | inconclusive: 39.8 µM [inhibitor, single point] |
| COC(=O)C1=C(C)N(C)C(=S)NC1c1ccc(C(C)C)cc1 (stereo not given) | inactive |
| COCCn1c(C)cnc1CC1CCN(C(=O)c2ccc(C)s2)CC1 | inactive |
| COc1cc(F)ccc1-c1ccnc2ncnn12 | active: 25.1 µM |
| Cc1nn(C)c(C)c1-c1ccnc(NCC2CC(=O)N(C3CCCC3)C2)n1 (stereo not given) | active: 25.1 µM |
| Cc1cccc2c1-c1sc(C(=O)Nc3ccccc3N3CCN(C)CC3)cc1CO2 | inconclusive: 31.6 µM [inhibitor, single point] |
| Cc1cccc(Cn2c(NCCc3ccccc3)nc3c2c(=O)n(C)c(=O)n3C)c1 | inactive |

| SMILES | Potency |
| --- | --- |
| Cc1noc(C)c1CC(=O)N[C@@H]1CN(Cc2cccnc2)C[C@H]1CN(C)C | inactive |
| CC(C)C(=O)N1CCC(Oc2ccccc2-c2nc(C3CC3)no2)C1 (stereo not given) | inconclusive: 35.5 µM [inhibitor, partial curve, poor fit] |
| N#Cc1nc(COc2ccc(Br)cc2)oc1NCc1cccnc1 | inconclusive: 39.8 µM [inhibitor, single point] |
| COc1ccc(C(=O)NC2CCN(c3cc(-c4ccccc4)[nH]n3)C2)c(OC)c1 (stereo not given) | inconclusive: 4.47 µM [inhibitor, full curve, poor fit] |
| CCN(Cc1nc(-c2ccc(OC)c(OC)c2)no1)C(=O)Nc1cccc2ccccc12 | inconclusive: 20 µM [inhibitor, partial curve, poor fit] |
| Cc1ccc2c(c1)N1C(=O)OC[C@@H]1CCN(C(=O)C1CC1)C2 | inactive |
| Cc1ccc(Nc2nc(NCCO)nc3c2cnn3C)cc1C | inactive |
| CNC(=O)CCn1ncc2cc(OC3CCc4cccc(-c5ccccc5)c43)ccc21 (stereo not given) | inconclusive: 44.7 µM [inhibitor, partial curve, poor fit] |
| COC(=O)c1cc(NC(=O)C2CCC2)cc(C(=O)OC)c1 | inconclusive: 2.82 µM [inhibitor, full curve, poor fit] |
| CN(Cc1ccccc1)C(=O)Cn1c2c(c(=O)n1Cc1ccccc1)CCN(Cc1ccccc1)C2 | inconclusive: 28.2 µM [inhibitor, partial curve, poor fit] |
| CCC1=C(C(=O)OC)C(c2ccccc2OC)N2C(CC(=O)N3CCCCC3C)=CSC2=N1 (stereo not given) | inconclusive: 28.2 µM [inhibitor, partial curve, poor fit] |
| CC1CCC(C(C)C)C(OCCC[N+](C)(C)C)C1 (stereo not given) | inactive |
| Oc1c(C(c2cccc(Br)c2)N2CCCC2)sc2nc(-c3ccco3)nn12 (stereo not given) | inconclusive: 17.8 µM [inhibitor, partial curve, poor fit] |
| Cc1ncccc1OC1(C(=O)NCc2nnc3n2CCC3)CCNCC1 | inconclusive: 2.82 µM [inhibitor, full curve] |
| Cn1ncc2c(C(=O)N3CCOCC3)cc(C(C)(C)C)nc21 | inactive |
| COc1ccc(C(CC(=O)NCCC(C)C)c2c[nH]c3ccccc23)c(OC)c1 (stereo not given) | inactive |
| CC(C)NC(=O)c1ccc(Cl)c(Cl)c1 | inactive |
| Cc1ccc(C)c(CN2CCCN(CC(=O)N3CCCC3)S2(=O)=O)c1 | inactive |
| COC(=O)c1ccccc1NC(=O)NCc1nc(-c2ccccc2)oc1C | inconclusive: 28.2 µM [inhibitor, partial curve, poor fit] |
| O=C(CCc1ncc(-c2ccc(F)cc2)o1)Nc1ccncc1 | inactive |
| CCn1ccc(C(=O)N2CCCC3(C2)Nc2cccnc2NC3=NCc2ccccc2)n1 (stereo not given) | active: 28.2 µM |
| CCOc1ccccc1CN1CCC2(CCN([S+](=O)([O-])c3cccs3)CC2)Oc2ccccc21 | inconclusive: 11.2 µM [inhibitor, partial curve, poor fit] |

From PubChem BioAssay AID1347165 (National Center for Advancing Translational Sciences (NCATS), 2019)
